Test results as given in the supplement of paper PMC11283458.
Structures can show the parent of a compound that is named as a salt. The list shows a part of the results. Single values are uncertain, as repeats are few or missing.

Tests used:
[1] = tested on: Mef2d microexon dual Nano/Firefly luciferase splicing reporter in Neuro-2a cells; assay: B-score of Firefly/Nano luminescence ratio, V1 Mef2d microexon reporter (B-score (plate-normalised)); higher = more Mef2d microexon inclusion; conditions: 24 h
[2] = tested on: Mef2d microexon dual Nano/Firefly luciferase splicing reporter in Neuro-2a cells; assay: B-score of Nano/Firefly luminescence ratio, V2 Mef2d microexon reporter (B-score (plate-normalised)); higher = more Mef2d microexon inclusion; conditions: 24 h
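Wherever B-score of Nano/Firefly luminescence ratio, V2 Mef2d microexon reporter is given: compounds at 4 µM (PKI library 0.5 µM) on Dox-inducible N2A Flp-In cells with PEST-tagged luciferases, 384-well plates, B-score from per-plate median-polish residual over median absolute residual.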

| SMILES | B-score [1] | B-score [2] |
| --- | --- | --- |
| CC(=O)[C@]1(O)Cc2c(O)c3c(c(O)c2[C@@H](O[C@H]2C[C@H](N)[C@H](O)[C@H](C)O2)C1)C(=O)c1ccccc1C3=O (4 µM) | -20 | -21.5 |
| CC(C)(C)c1ccc(C(=O)ONC(=O)c2ccc(Cl)c(Cl)c2)cc1 (4 µM) | 8.42 | 2.8 |
| CC(C)NCC(O)Cn1c2c(c3ccccc31)CCc1c-2cnn1-c1ccccc1 (stereo not drawn) (4 µM) | -9.58 | -2.28 |
| Cc1cc(NCc2ccc(-c3csc(C)n3)s2)n2ncnc2n1 (4 µM) | -25.6 | -21.9 |
| O=C(OCCN1CCCCC1)c1c[nH]c2ccccc12 (4 µM) | -6.04 | -6.07 |
| COc1cc(Br)c(-c2cc3cc(Cl)ccc3oc2=O)cc1OC (4 µM) | -9.92 | -4.82 |
| CC(=O)Nc1cccc(-n2c(=O)n(C3CC3)c(=O)c3c(Nc4ccc(I)cc4F)n(C)c(=O)c(C)c32)c1 (0.5 µM) | 15.8 | 19.2 |
| C[n+]1c(C=Cc2ccc(Cl)c(Cl)c2)ccc2ccccc21 (4 µM) | 5.73 | 3.03 |
| Cc1nn(Cc2cccc(C(=O)ON=C(N)c3ccc(Cl)cc3)c2)c(C)c1Br (4 µM) | 9.93 | 6.98 |
| O=C(Nc1ccc2[nH]nc(-c3ccncc3)c2c1)[C@@H]1CCN(CC(=O)N2CCN(c3ccc(-c4ncccn4)cc3)CC2)C1 (0.5 µM) | 8.88 | 6.16 |
| O=C(COc1cccc([N+](=O)[O-])c1)N1CCN(c2ncc(C(F)(F)F)cc2Cl)CC1 (4 µM) | 3.89 | 0.683 |
| N#CC(C#N)=NNc1ccc2c(c1)OCCO2 (4 µM) | -2.32 | -5.33 |
| COC(=O)c1sc(S(C)=O)c2c1CC(C)(C)CC2=O (stereo not drawn) (4 µM) | 9.85 | 9.27 |
| CC[C@]1(O)C[C@@H]2CN(CCc3c([nH]c4ccccc34)[C@@](C(=O)OC)(c3cc4c(cc3OC)N(C)[C@H]3[C@@](O)(C(=O)OC)[C@H](OC(C)=O)[C@]5(CC)C=CCN6CC[C@]43[C@@H]65)C2)C1 [Vinblastine sulfate salt] (4 µM) | -2.77 | -7.72 |
| CN(C)S(=O)(=O)c1ccc2c(c1)/C(=C/c1cc3c([nH]1)CCCC3)C(=O)N2 (0.5 µM) | 7.32 | 2.02 |
| O=C(Nc1ccc(SC(F)(F)F)cc1)ON=C1CC2CCCC(C1)N2Cc1cccs1 (4 µM) | 13.5 | 2.38 |
| O=C(Nc1ccc(F)cc1)Nc1ccc(Br)c(C(F)(F)F)c1 (4 µM) | 2.22 | 1.29 |

| SMILES | B-score [1] | B-score [2] |
| --- | --- | --- |
| CCCCCCc1ccccc1NC(=O)Nc1cccnc1 (4 µM) | 4.02 | 2.49 |
| COc1ccc(-c2cc(NC(=O)Cc3c(C)noc3C)ccc2OC)cc1 (4 µM) | 4.78 | 3.25 |
| COc1cc2c(cc1OC)CN(C(=O)c1ccc(OCC(F)(F)F)nc1)CC2 (4 µM) | -20.6 | -4.63 |
| N/C(=N\OC(=O)CC(c1ccccc1)c1ccccc1)c1ccccc1 (4 µM) | 6.66 | 4.26 |
| CCOC(=O)c1c(C)[nH]c(C(=O)C(C)N(C)Cc2cccc(OC)c2OC)c1C (stereo not drawn) (4 µM) | -4.39 | -2.28 |
| Cc1onc(-c2c(Cl)cccc2Cl)c1C(=O)ON=C(N)Cc1ccc(C(C)(C)C)cc1 (4 µM) | 4.82 | 2.24 |
| NC(=NOC(=O)c1cc(-c2ccccc2)c(C(F)(F)F)s1)c1ccccc1 (4 µM) | 2.02 | 2.29 |
| COC(=O)c1cc(OC)c(OC)cc1NS(=O)(=O)c1ccc(OC)cc1 (4 µM) | -6.02 | -6.7 |
| COc1ccc(C(O)CCNC(CC(C)C)C(=O)O)cc1 (stereo not drawn) (4 µM) | -1.61 | -4.82 |
| O=C(C=Cc1cc([N+](=O)[O-])ccc1Sc1ccc(C(F)(F)F)cn1)Nc1ccccc1 (4 µM) | 0.824 | 4.52 |
| Cc1ccc(S(=O)(=O)N/N=C/c2ccc3ccccc3c2O)cc1 (4 µM) | 3.91 | 37.8 |
| Oc1nc2ccccc2nc1-c1c[nH]c2ccccc12 (4 µM) | 9.44 | 1.5 |
| CCCN(CCC)c1ccc2nonc2c1[N+](=O)[O-] (4 µM) | -3.48 | -4.15 |
| CCOC(=O)c1c(C)c(C(=O)Nc2cc(Cl)ccc2OC)c(C)n1C (4 µM) | -10 | -10.3 |
| Cc1cc(N2CCC(C)CC2)c([N+](=O)[O-])cc1[N+](=O)[O-] (4 µM) | 4.05 | 4.18 |
| N#C/C(=C\Nc1cc(C(F)(F)F)cc(C(F)(F)F)c1)S(=O)(=O)c1cccs1 (4 µM) | -4.68 | -5.44 |
| CCOC(=O)c1c(NC(=O)c2ccc(-c3ccccc3)cc2)sc(C(C)=O)c1C (4 µM) | -8.69 | -1.84 |
